Experimental data from publication PMC4336329 (PLoS ONE, 2015).
Screen size: about 310,000 compounds; about 14,000 (4.5%) showed an effect of 50% or more. Effects have a minus sign here. Some of the results follow.

The molecules below were run against human ether-à-go-go-related gene (hERG) potassium channel (human, UniProt Q12809) (assay: primary screen, population patch clamp on CHO cells stably expressing hERG).
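Further: peak tail current of the secondary pulse compared with the same well before compound.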

human ether-à-go-go-related gene (hERG) potassium channel, sequence (Q12809 whole entry, looked up): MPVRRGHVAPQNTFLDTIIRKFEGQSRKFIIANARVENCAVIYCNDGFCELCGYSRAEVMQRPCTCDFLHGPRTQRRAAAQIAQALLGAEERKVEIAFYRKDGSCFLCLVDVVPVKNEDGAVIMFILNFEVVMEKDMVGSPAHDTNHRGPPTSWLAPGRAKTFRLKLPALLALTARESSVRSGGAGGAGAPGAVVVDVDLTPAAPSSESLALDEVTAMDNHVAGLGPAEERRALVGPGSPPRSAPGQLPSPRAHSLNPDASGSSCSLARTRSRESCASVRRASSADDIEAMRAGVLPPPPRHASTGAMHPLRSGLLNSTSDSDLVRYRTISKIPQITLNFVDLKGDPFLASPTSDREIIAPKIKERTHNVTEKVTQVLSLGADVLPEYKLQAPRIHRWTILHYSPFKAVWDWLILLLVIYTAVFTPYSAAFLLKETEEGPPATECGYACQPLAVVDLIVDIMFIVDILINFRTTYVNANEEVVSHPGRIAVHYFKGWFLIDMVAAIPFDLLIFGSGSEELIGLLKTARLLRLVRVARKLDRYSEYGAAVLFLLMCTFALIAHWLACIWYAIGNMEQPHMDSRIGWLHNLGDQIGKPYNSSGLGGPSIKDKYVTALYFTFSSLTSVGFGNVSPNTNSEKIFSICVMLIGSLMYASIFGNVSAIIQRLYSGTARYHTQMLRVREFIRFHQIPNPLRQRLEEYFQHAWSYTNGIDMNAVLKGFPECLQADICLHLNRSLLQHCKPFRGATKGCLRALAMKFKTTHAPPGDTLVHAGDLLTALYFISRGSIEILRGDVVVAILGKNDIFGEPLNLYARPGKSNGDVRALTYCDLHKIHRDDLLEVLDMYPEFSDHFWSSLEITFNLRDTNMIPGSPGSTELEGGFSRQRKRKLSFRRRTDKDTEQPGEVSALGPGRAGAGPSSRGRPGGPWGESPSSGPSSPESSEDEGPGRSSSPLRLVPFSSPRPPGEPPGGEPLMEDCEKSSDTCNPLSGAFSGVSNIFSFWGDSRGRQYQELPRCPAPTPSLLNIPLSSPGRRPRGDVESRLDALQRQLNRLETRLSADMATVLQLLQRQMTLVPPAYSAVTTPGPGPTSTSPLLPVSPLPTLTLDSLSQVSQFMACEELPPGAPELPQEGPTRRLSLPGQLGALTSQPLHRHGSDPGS

| Compound | hERG current change (%, negative = inhibition) at 10uM [%] |
| --- | --- |
| Cc1ccnc(-n2c(C)nc3ccccc3c2=O)c1 | 12.2 |
| Cc1oncc1-c1cn2ccccc2n1 | 6.61 |
| NS(=O)(=O)c1ccc2nc(NC(=O)c3ccc(Br)o3)sc2c1 | 3.81 |
| COc1ccc(OC)c(Nc2nc3ccccc3n3cnnc23)c1 | 16 |
| Cc1ccc(C2(CC(=O)N3CCCC3)CCOC(C(C)C)C2)cc1 (stereo not drawn) | 0.617 |
| O=C(CCS(=O)(=O)c1ccccc1)Nc1nc(-c2cccs2)cs1 | -23.4 |
| CCCC(=O)C1=C(O)C(C(=O)OC)C(C)(C)CC1=NC(C)(C)C (stereo not drawn) | 10.3 |
| C/C=C\C=C/C(=O)Nc1cccc(C2=NOC3(C2)C[C@@H](C(N)=O)N(C(=O)[C@H]2CCC(=O)N2)C3)c1 (stereo partly drawn) | 24.1 |
| CC1=CC(=C2C(=O)c3ccccc3C2=O)C=C(C)N1C | -6.45 |
| CC(=O)Nc1ccc(OCC(O)CN2CCN(c3ccc(F)cc3)CC2)cc1 (stereo not drawn) | -23.4 |
| COc1ccc(CC(=O)OCC(=O)N2CCCC(C)C2)cc1 (stereo not drawn) | 26 |
| COc1cccc(NC(=O)Cn2c(=O)oc3cc(S(=O)(=O)N4CCCC4)ccc32)c1 | 11.4 |
| CC1=C(C(=O)OC(C)C)C(c2cccs2)NC(=S)N1 (stereo not drawn) | -2.18 |
| c1ccc2c(c1)C(=NC1CCCCC1)NC2=NC1CCCCC1 | -14 |
| Fc1ccc(OCc2nn3cnnc3s2)cc1 | 5 |
| Cc1cccc(N2C(=O)CC(N3CCN(Cc4ccc5c(c4)OCO5)CC3)C2=O)c1 (stereo not drawn) | -19.1 |
| O=C1c2ccccc2NC(c2ccc(-c3ccc(Br)cc3)o2)N1O (stereo not drawn) | -9.56 |
| CCOC(=O)C1=C(COC(=O)c2cccs2)NC(=O)NC1C (stereo not drawn) | 6.08 |
| c1ccc2c(c1)CC(N1CCCCC1)c1ccccc1N2 (stereo not drawn) | -15.2 |

| Compound | hERG current change (%, negative = inhibition) at 10uM [%] |
| --- | --- |
| CNC(=O)CSc1nnc(-c2cccc(S(=O)(=O)N3CCOCC3)c2)n1-c1ccc(F)cc1 | 2.23 |
| CC(O)c1nc2ccccc2n1C/C=C/c1ccccc1 (stereo not drawn) | -13.3 |
| COc1ccc(Cc2nccc3cc(OC)c(OC)cc23)cc1OC.Cl | -7.68 |
| COc1ccc(C(=O)NC(=S)Nc2ccc(S(=O)(=O)Nc3cc(C)on3)cc2)cc1OC | 4.8 |
| Cc1ccc(NC(=O)N(C2=NCC(C)S2)c2ccccc2)cc1 (stereo not drawn) | 16.3 |
| COc1ccccc1C(=O)Nc1cc2c(ccc3ccccc32)oc1=O | -1.2 |
| COc1ccc(C)cc1NC(=O)c1cc(S(=O)(=O)N2CCCCC2)ccc1N1CCOCC1 | -39.2 |
| N#Cc1ccc(-c2ccc3c(c2)OCO3)nc1SCC(=O)OCc1ccccc1 | 9.22 |
| O=C(NC(=Nc1ccccc1)N1CCOCC1)Nc1ccccc1 | 0.147 |
| CCOC(=O)N1CCC(O)(c2cc(C)c(C)cc2C)CC1 | -2.36 |
| CCCNc1c(NS(=O)(=O)c2ccc(Cl)s2)c(=O)oc2ccccc12 | -49.1 |
| COC(=O)c1sc2ccccc2c1NC(=O)c1ccc(S(=O)(=O)N2CCCCC2)cc1 | 11.2 |
| Nc1c(-c2ccccc2)cnn1C1CCS(=O)(=O)C1 (stereo not drawn) | 4.46 |
| Cc1ccc(O)c(NC(=O)C2=CC(c3cccs3)=NS(=O)(=O)N2C)c1 | -2.67 |
| CC1CCc2nn(CC(=O)NCc3ccc(F)cc3)cc2C1 (stereo not drawn) | 1.41 |
| CCN1CCN(c2cc(C)c3cc(NC(=S)N(C)Cc4ccccc4)ccc3n2)CC1 | -77.7 |
| COc1ccccc1CNC(=O)c1ccc(N(C)S(=O)(=O)c2ccc(C)cc2)cc1 | 17.5 |
| Cc1nc(Cc2nnc(SCC(=O)Nc3c(C)cccc3C)o2)cs1 | 15.1 |
| NS(=O)(=O)c1ccc(NC(=O)COc2ccc(C(=O)c3ccc(F)cc3)cc2)cc1 | -49 |

| Compound | hERG current change (%, negative = inhibition) at 10uM [%] |
| --- | --- |
| O=C(Nc1ccc(F)cc1F)c1ccco1 | 2.94 |
| COc1ccc(CN2CC(C(=O)NCc3cccc(OC)c3)CC2=O)cc1 (stereo not drawn) | -4.84 |
| CCOC(=O)N1CCN(C(=O)CS(=O)(=O)Cc2nc(-c3cccc(OC)c3)oc2C)CC1 | -26.6 |
| O=C(N/N=C/c1ccc(O)c(O)c1)c1cccc(S(=O)(=O)N2CCCC2)c1 | -14.9 |
| CC(NC(=S)NCCc1ccccc1)C(c1cccs1)N1CCN(Cc2ccccc2)CC1 (stereo not drawn) | -41.3 |
| CC(C)NC(=O)CCn1ccc2cc(S(=O)(=O)N3CCCC3)ccc21 | 16.5 |
| CN(C)c1ccc(/C=C/c2cc[n+](C)cc2)cc1.[I-] | 2.73 |
| O=C(Nc1ccc(S(=O)(=O)Nc2ccccn2)cc1)c1ccccc1 | 15.8 |
| Cc1csc(=O)n1CCC(=O)OC(C)C(=O)Nc1ccc(N2CCOCC2)cc1 (stereo not drawn) | 11.2 |
| CCOC(=O)c1oc2cc(C)cc(C)c2c1C | 18.7 |
| COc1ccc(-n2c(-c3ccccc3Br)nc3ccccc3c2=O)cc1 | -20.9 |
| N#Cc1cc2c(nc1S(=O)(=O)Cc1ccccc1)CCCC2 | 1.48 |
| COc1cccc(CN2CC(C(=O)N(C)Cc3nc4ccc(F)cc4[nH]3)CCC2=O)c1 (stereo not drawn) | 3.99 |
| CCOc1cc(Cl)c(S(=O)(=O)NCc2cccnc2)cc1Cl | 3.6 |
| O=C(COc1ccccc1)Nc1ccc2oc(=O)ccc2c1 | 4.76 |
| O=[N+]([O-])c1cccc(/C=N/NC2CCS(=O)(=O)C2)c1 (stereo not drawn) | 11.9 |
| O=C(Nc1ccccc1)c1ccc(NCc2cccnc2)c(S(=O)(=O)N2CCOCC2)c1 | -47.8 |
| Cc1ccc2c(C)c(C(=O)NCCc3ccco3)oc2c1C | 13 |
| CC(=O)OC1COC(n2c(O)c(N=NC(N)=S)c3ccccc32)C(OC(C)=O)C1OC(C)=O (stereo not drawn) | 15.8 |
